Test results as given in paper PMC4336329 (PLoS ONE, 2015).
Hit rate of the full screen: of about 310,000 compounds, about 2,200 (0.71%) showed an effect of 50% or more. Effects have a minus sign here. The list shows a part of the results.

target: human ether-à-go-go-related gene (hERG) potassium channel (human, UniProt Q12809); assay: primary screen, population patch clamp on CHO cells stably expressing hERG
Sequence (Q12809 whole entry, looked up): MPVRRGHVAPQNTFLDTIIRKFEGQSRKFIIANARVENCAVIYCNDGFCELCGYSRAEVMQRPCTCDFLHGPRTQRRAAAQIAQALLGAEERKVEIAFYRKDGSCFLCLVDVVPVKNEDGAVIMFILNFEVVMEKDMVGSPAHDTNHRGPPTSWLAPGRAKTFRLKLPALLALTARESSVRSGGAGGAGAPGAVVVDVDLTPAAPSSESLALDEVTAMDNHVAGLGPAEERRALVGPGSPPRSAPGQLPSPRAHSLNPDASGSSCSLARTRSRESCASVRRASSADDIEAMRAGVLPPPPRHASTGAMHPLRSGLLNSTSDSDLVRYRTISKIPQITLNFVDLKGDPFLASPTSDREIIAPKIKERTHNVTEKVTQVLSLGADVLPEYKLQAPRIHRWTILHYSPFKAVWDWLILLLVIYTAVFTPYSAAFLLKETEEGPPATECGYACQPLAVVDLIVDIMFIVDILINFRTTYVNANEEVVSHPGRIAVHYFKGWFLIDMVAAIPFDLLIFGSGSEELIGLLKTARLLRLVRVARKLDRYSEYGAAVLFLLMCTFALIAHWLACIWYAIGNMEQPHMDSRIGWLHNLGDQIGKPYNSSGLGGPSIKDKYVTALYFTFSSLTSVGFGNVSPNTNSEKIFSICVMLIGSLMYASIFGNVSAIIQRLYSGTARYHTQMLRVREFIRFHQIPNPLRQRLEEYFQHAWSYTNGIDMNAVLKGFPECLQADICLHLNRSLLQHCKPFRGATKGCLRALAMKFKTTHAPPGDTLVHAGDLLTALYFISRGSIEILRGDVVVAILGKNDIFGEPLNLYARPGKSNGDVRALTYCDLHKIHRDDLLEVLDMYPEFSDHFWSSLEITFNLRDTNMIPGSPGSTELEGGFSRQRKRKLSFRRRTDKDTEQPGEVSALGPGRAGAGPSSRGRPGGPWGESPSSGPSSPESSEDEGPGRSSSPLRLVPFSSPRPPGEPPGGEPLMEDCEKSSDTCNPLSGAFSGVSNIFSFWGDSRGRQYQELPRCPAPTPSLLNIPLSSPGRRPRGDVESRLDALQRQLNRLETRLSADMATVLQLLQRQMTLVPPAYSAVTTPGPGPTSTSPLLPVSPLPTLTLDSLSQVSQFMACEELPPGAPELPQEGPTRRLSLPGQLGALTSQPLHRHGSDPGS

Structure (SMILES) | hERG current change (%, negative = inhibition) at 1uM [%]
Nc1ccc(Oc2ccc(F)cc2)nc1 | 4.1
O=C(O)c1ccccc1-c1ccccc1C(=O)Nc1ccc(F)cc1 | 5.83
CCOC(=O)c1[nH]c(C)c(/C(O)=C2\C(=O)C(=O)N(CCN3CCOCC3)C2c2cccs2)c1C (stereo not drawn) | 5.83
CC(=O)N1CCOc2ccc(S(=O)(=O)N3CCC(C(=O)Nc4ccccc4F)CC3)cc21 | 12
O=C(COc1ccc(Br)cc1Cl)NC(=S)N1CCc2ccccc21 | 8.41
Cc1c(CCC(=O)O)c(=O)oc2cc3occ(-c4ccc(Br)cc4)c3cc12 | 16.9
O=C(NCc1ccc(F)cc1)C1CCCN(C(=O)Nc2ccc(F)cc2)C1 (stereo not drawn) | 4.98
COCCn1nc2cc(C(=O)NCC34CC5CC(CC(C5)C3)C4)ccc2c1OC | 5.25
COc1ccc(/C=N/NS(C)(=O)=O)c(OC)c1 | 9.05
CC(C)(C)OC(=O)NCCc1nnc(SCc2c(Cl)cccc2Cl)o1 | 9.58
CCc1cc2c(SCC(=O)N(CC)c3c(N)n(Cc4ccccc4)c(=O)[nH]c3=O)ncnc2s1 | 7.35
COc1ccc(C(=O)NNC(=O)C(=O)/C=C(\O)c2ccc(C)cc2)cc1 | 15.5
COCC(C)NC(=O)c1ccc2c(c1)S(=O)(=O)c1ccccc1C2=O (stereo not drawn) | 13.4
COc1ccc(OCC(=O)NCCNC(=O)c2ccccn2)cc1 | 4.21
Cn1c(=O)cc(OCCCC(=O)N2CCCCC2)c2ccccc21 | 12.4
CCCOc1ccc(C(=O)NC(=S)Nc2nc3ccccc3s2)cc1 | 2.37
O=S(=O)(c1ccccc1)C(/C=N\O)/C=C/c1ccccc1 (stereo not drawn) | 13.4
COc1ccc(N2CCN(C(=S)Nc3cc(C)ccc3C)CC2)cc1 | 10.1
Cc1nn(C(C)(C)C)c(NC(=O)c2ccccc2)c1C#N | 7.9
CC(C)(CO)CNC(=O)CCc1nnc(-c2ccc(-c3ccccc3)cc2)o1 | 15.4
CNC(=S)N/N=C/c1c(C(=O)OC)cnn1-c1ccc(F)cc1F | 8.46
COc1ccc(-c2[nH]c3ccccc3c2SCCNC(=O)c2ccccc2)cc1 | 12.9

Structure (SMILES) | hERG current change (%, negative = inhibition) at 1uM [%]
O=C(N/N=C/c1ccc(N2CCOCC2)cc1)c1ccccc1OCCOc1ccccc1 | -5.24
COCCNC(=O)c1c[nH]c2ccc(S(=O)(=O)Nc3ccccc3F)cc2c1=O | 9.25
CN1CCN(C(CNC(=O)Nc2ccc(Cl)cc2)c2ccc(F)cc2)CC1 (stereo not drawn) | -16.4
Cc1nc2sccn2c(=O)c1S(=O)(=O)NCc1ccccc1Cl | 9.84
COc1ccc(-n2cc(CNC3CCOCC3)c(-c3cccc(F)c3)n2)cc1 | -1.28
O=[N+]([O-])c1ccc(S(=O)(=O)NCCN2CCOCC2)cc1 | 12.6
N#Cc1ccc(NC(=O)c2sc3cc(C(F)(F)F)cnc3c2-c2cccs2)cc1 | 0.671
O=C(N/N=C/C=C/c1ccc([N+](=O)[O-])cc1)c1cccs1 | 7.54
CCOC(=O)Cn1c(=O)c2c(nc3n2CCCN3Cc2ccccc2)n(C)c1=O | -14.1
CS(=O)(=O)Nc1nc2n(n1)C(c1ccc(F)cc1)CC(c1ccccc1)N2 (stereo not drawn) | 2.53
CCC(C)c1ccc(Nc2ncccc2C#N)cc1 (stereo not drawn) | 8.1
CCN(CC(=O)Nc1ccccc1SC)Cc1nc2ccccc2c(=O)[nH]1 | 2.25
CCCC(=O)Nc1ccc2c(c1)nc(CCNC(=O)c1ccco1)n2C | 12
COc1ccc(NC(=O)COC(=O)CCOc2ccccc2C)cc1Cl | -2.04
Nc1nnc(SCC(=O)c2ccc3c(c2)NC(=O)CO3)s1 | 14.5
N#Cc1cc(C(=O)Cc2ccccc2)c[nH]1 | 12.7
CCN1C(=O)/C(=C\N2CCOCC2)SC1=S | 8.51
Cc1cccn2c(=O)c3cc(C(=O)NC4CCS(=O)(=O)C4)sc3nc12 (stereo not drawn) | 12.7
COc1ccc(S(=O)(=O)N(C)CC(=O)NCCN2CCOCC2)cc1 | 12.1
Cc1cc(C)n2nc(SCc3nnc(SCCCCl)o3)nc2n1 | 5.79
COC(=O)c1sc(NC(=O)c2ccncc2)nc1C | 20.5
O=C(Nc1cc(C(F)(F)F)ccc1-n1cncn1)c1ccc(-c2ccccc2)cc1 | 8.67

Structure (SMILES) | hERG current change (%, negative = inhibition) at 1uM [%]
CC(C)(C)c1ccc(CN(Cc2ccccc2)C(c2ccccn2)c2nnnn2C(C)(C)C)cc1 (stereo not drawn) | 6.17
CC(C)(C)C1=NN=C2c3ccccc3C(=O)C21 (stereo not drawn) | 10.4
CNC(=O)c1[nH]cnc1C(=O)NCC(=O)OCc1ccccc1 | 14.1
COc1ccc(C2CC(c3ccccc3)=NN2C(=O)COC(=O)c2cccc(S(=O)(=O)N(C)C)c2)cc1 (stereo not drawn) | -2.73
CCCn1c(SC2C(=O)CC(C)(C)CC2=O)nc2c1c(=O)n(C)c(=O)n2C | 15.4
O=C(CCCCCNC(=O)c1ccccc1)N=Nc1c(O)[nH]c2c(Br)cc(Br)cc12 | 5.16
CC1(C(=O)NNC(=S)NCc2ccco2)CC1(Cl)Cl (stereo not drawn) | 17.5
CCOc1ccc(NC(=O)CSc2nc3ccccc3c(=O)n2CCCC(=O)NCC2CCCO2)cc1 (stereo not drawn) | 15.5
CC1CCCC(NC(=O)CN(C)CC(=O)Nc2cccc(F)c2)C1C (stereo not drawn) | 11.9
O=C(CNC(=O)/C=C/c1ccccc1)N=Nc1c(O)n(Cc2ccccc2)c2ccccc12 | -11.6
O=C(Nc1ccc(N2CCCC2)c(Cl)c1)c1cccnc1 | 2.49
Cc1ccc(CCNC(=O)c2cc(-c3ccncc3)nc3ccccc23)cc1 | -1.05
COC(=O)c1c(C)[nH]c(C(=O)NCc2ccco2)c1C | 4.36
Cc1ccc(C(C)C)c(OCCCNCc2cccnc2)c1.Cl | -1.62
CCOCCCNC(=S)N(Cc1ccco1)Cc1cc2cc3c(cc2[nH]c1=O)OCCO3 | 9.38
COc1ccc(OCc2ccc(-c3nc4ccccc4c(=O)n3N)o2)cc1 | -3.45
CCOC(=O)N1CCN(C(=O)COC(=O)C2CCN(S(=O)(=O)c3c(C)c(C)cc(C)c3C)CC2)CC1 | -7.18
COc1ccc(CCNC(=O)c2ccc(CS(=O)(=O)c3ccc(Cl)cc3)o2)cc1OC | -4.68
COCCN(C(=O)C1CCC1)c1nnc(-c2cccnc2)s1 | 11.2
Cc1ccccc1C(=O)Nc1ccccc1C(=O)N1CCC(C)CC1 | 11.7
CN(c1ccccc1)S(=O)(=O)c1cccc(NC(=O)CC(C)(C)C)c1 | 4.77
COc1ccc2oc(C(=O)NCCc3ccccc3)c(C)c2c1 | 14.8

Structure (SMILES) | hERG current change (%, negative = inhibition) at 1uM [%]
Cc1cccc(N2CCN(Cc3nc(-c4cccc(Cl)c4)oc3C)CC2)n1 | -7.13
COc1cc2ncc(S(=O)(=O)c3ccccc3)c(N3CCCC(C)C3)c2cc1OC (stereo not drawn) | 10.7
O=C(NC(=S)NCCN1CCOCC1)c1ccccc1 | 4.85
COc1ccc(CC(=O)Nc2cccc(/C(C)=N/NC(=O)c3cccc([N+](=O)[O-])c3)c2)cc1 | -0.187
COc1ccc(C(=O)NNC(=O)c2ccc3ccccc3c2O)cc1 | 18.1
COc1ccc(NC(=O)C(C)SCc2ccccc2)cc1OC (stereo not drawn) | 16.7
COC(=O)c1sc2nc(SCC(=O)N(C)c3ccccc3)n(N)c(=O)c2c1C | 15.6
Cc1cccc(N2C(=O)CC(Sc3nc(C)cc(C)n3)C2=O)c1 (stereo not drawn) | 11.8
CN(c1ccccc1)c1nc(N)c([N+](=O)[O-])c(Nc2ccccc2)n1 | 7.77
CCCNC(=O)c1ccc2c(=O)c(O)c(-c3cccc(Br)c3)[nH]c2c1 | 14.8
CS(=O)(=O)N(CC(=O)N1CCN(Cc2ccccc2)CC1)C1CCCCC1 | -5.43
O=c1[nH]c2ccc(Br)cc2c(-c2ccccc2)c1N1CCOCC1 | 5.08
CO/C=C/C#CC1(O)CCN(C)CC1 | 4.14
COc1cc(O)c(C(CC(=O)N2CCN(c3ccccc3)CC2)c2ccc3c(c2)OCO3)c(OC)c1 (stereo not drawn) | 17.6
COc1ccc(CC(=O)OCC(=O)Nc2ccc(N3CCOCC3)cc2)cc1 | -3.77
COc1ccccc1C1=NOC(COc2ccc3c(C)cc(=O)oc3c2)C1 (stereo not drawn) | 15.9
CCOC(=O)CNS(=O)(=O)Cc1ccccc1 | 11.1
CCCCCN(C(=O)CCC(=O)OCc1ccc(C(C)C)cc1)c1c(N)n(CCCC)c(=O)[nH]c1=O | -0.71
O=C(CCCCCCCC(=O)NNC(=O)Nc1ccccc1)NNC(=O)Nc1ccccc1 | 14.9
Cc1ccccc1NC(=S)NC(NC(=O)COc1ccccc1)C(Cl)(Cl)Cl (stereo not drawn) | 14.3
CCOc1ccc(NC(=O)C(NC(=O)C2CCC(C)CC2)C(C)C)cc1 (stereo not drawn) | 13.7
